We go through 109 compounds from PubChem BioAssay AID1240 (Sanford-Burnham Center for Chemical Genomics, 2008).

Structures are written as SMILES. About 800 (1.6%) of roughly 50,000 compounds showed an effect of 50% or more. The list shows a part of the results.

In this assay the target is Bcl-2-like protein 10 (Homo sapiens) (UniProt Q9HD36). Nature of the assay: TR3 peptide-Bcl-B binding displacers, biochemical primary FP assay, phenotype converters (AID 1240).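 Note: 0% = Bcl-B with tracer peptide and DMSO and 100% = tracer peptide lacking Bcl-B.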 The following applies: GST-Bcl-B / FITC-TR3 peptide fluorescence polarization; stronger effect = higher value; compound at 3.75 mg/L.
Sequence of UniProt Q9HD36 (Q9HD36 whole entry, looked up): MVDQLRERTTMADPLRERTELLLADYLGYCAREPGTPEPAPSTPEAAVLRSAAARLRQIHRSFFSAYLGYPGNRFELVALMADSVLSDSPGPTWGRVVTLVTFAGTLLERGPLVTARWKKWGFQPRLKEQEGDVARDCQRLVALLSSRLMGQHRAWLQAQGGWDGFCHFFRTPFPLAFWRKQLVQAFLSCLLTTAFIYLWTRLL
Turning to `O=[N+]([O-])c1ccc(-n2ncnc2-c2ccc(Br)cc2)c(Cl)c1`, the displacement was 14.5%.
In the case of `C=CCN1C(=O)/C(=C\c2ccc(OCCOc3cccc(OC)c3)c(OC)c2)SC1=S`, the displacement came out at 2.2%.
On to `c1ccc2cc(OCCCCn3ccnc3)ccc2c1`, for which the displacement was -9.3%.
Next, `COc1ccc2c(c1)CC/C2=N/OC(=O)c1ccc(OC)c([N+](=O)[O-])c1`: 7.6%; `O=c1cc(-c2ccc([N+](=O)[O-])cc2)nc2cc(-c3cccc(Cl)c3)[nH]n12`: -4.3%.
Consider `Cc1cc(Br)c2[nH]c3c(c2c1)CCCC3=O`, for which the displacement was -5.9%.
With `Cc1c(NC(=S)NC(C)(C)C)c(=O)n(-c2ccccc2)n1C`, the displacement came to 5.2%.
`O=C(CN1C2=NCCCN2c2ccccc21)c1ccc(Br)cc1`: the displacement came out at 5.9%.
For `Cc1cc(-c2ccc(/C=c3/sc4nc5ccccc5n4c3=O)o2)cc([N+](=O)[O-])c1C` the value was 1.7%; for `Cc1cccc(C(=O)O/N=C(\N)Cc2cccc3ccccc23)c1`, 40.7%; for `O=C(NCCCNC(=O)c1ccc(CN2CCOCC2)cc1)c1ccc(CN2CCOCC2)cc1`, 0.1%.
`Cc1ccc(C)c(NC(=O)CCCCCCCCCCC2COCCO2)c1` (centres undefined): the displacement is -7.4%.
Turning to `CCOC(=O)/C=C/CSc1nc2sc3c(c2c(=O)[nH]1)CCCC3`, the displacement is -13.4%.
For `O=C(CCCN1C(=O)/C(=C\c2ccc(F)cc2)SC1=S)Nc1ccccc1O` the value was -12.5%; for `CC(=O)SCCC(=O)N1CCn2c3c(c4cc(C)ccc42)CCCC31` (centres undefined), 14.3%; for `COc1ccc(/C=C2/SC(=O)N(CNc3ccc(Br)cc3C)C2=O)cc1`, 4.5%.
On to `COc1cc(/C=C2/SC(=S)N(CC(=O)Nc3cccc(C(=O)O)c3)C2=O)cc(OC)c1OC`, for which the displacement was 8.3%.
Take `COc1cc(/C=N\Nc2nnc(C)c(=O)[nH]2)cc([N+](=O)[O-])c1O`: the displacement was -3.3%.
Turning to `CCc1nnc(NC(=O)CSc2nc3ccccc3[nH]2)s1`, the displacement was 5.1%.
For `CC(=O)c1ccc(Nc2cc(C)nc3ncnn23)cc1` the value was 16.7%; for `Cc1cccc2c1[nH]c1nc(N/N=C\c3ccc(-c4ccccc4Cl)o3)nnc12`, 1.8%.
For `COc1ccc(OC)c(/C=N/NC(=O)Cn2cnc3ccccc32)c1`, the displacement was -0.6%.
As to `CC(=O)C1=C(C)NC(=S)NC1c1ccc(O)cc1` (centres undefined), the displacement is 9%.
Turning to `CCNC(=NCCc1ccccc1)SC1CC(=O)N(c2ccccc2)C1=O` (centres undefined), the displacement was -10.7%.
For `CCCC(C)C1C(C#N)=C(N)Oc2n[nH]c(-c3ccccc3)c21` (centres undefined) the value was -7.7%.
Consider `C=CCn1c(SCC(=O)NCCO)nc2sc(C)c(C)c2c1=O`, for which the displacement came out at 11.4%.
Regarding `COc1cc2c(cc1NC(=O)c1ccc(C)c([N+](=O)[O-])c1)oc1ccccc12`, the displacement is 1.2%.
Next, `Cc1cccc(N2CCN(C3=NC(=O)/C(=C/c4ccc(-c5cccc([N+](=O)[O-])c5)o4)S3)CC2)c1`: 9.8%; `O=C1C=C(NCc2ccc(F)cc2)CC(c2ccccc2)C1` (centres undefined): -2.6%.
For the compound `CC(=O)N1N=C(C)CC1(O)c1cccnc1` (centres undefined), the displacement was -7.2%.
For `COC(=O)c1ccc(NC(=S)Nc2ccccc2)cc1`, the displacement stood at 1.3%.
For `CCC(=O)Oc1ccc2c(=O)c(-c3ccccc3)coc2c1` the value was 11%.
Regarding `CC1(C)Cc2c(sc(NC(=O)C3(c4ccccc4)CCCC3)c2C#N)CO1`, the displacement is -11.3%.
`Cc1ccc(/C(N)=N/OC(=O)COc2cccc(C)c2)cc1`: the displacement was -1.3%.
For the compound `COc1ccc(/C(N)=N/OC(=O)c2ccc(Br)cc2)cc1`, the displacement was -1.1%.
For `CSc1ccc(CN2CCN(Cc3ccccc3C(F)(F)F)CC2)cc1`, the displacement was -6.8%.
For the compound `COc1ccc(-c2c(C#N)c(N)nc(SCC(=O)OCc3ccccc3)c2C#N)cc1`, the displacement was -12%.
Next, `O=C(NCc1cccs1)c1cc2n(n1)C(C(F)(F)F)CC(c1ccc(Cl)c(Cl)c1)N2` (centres undefined): -0.6%.
Regarding `COC(=O)c1c(C)oc2ccc(NS(=O)(=O)c3ccc(Cl)cc3)cc12`, the displacement was 1.4%.
Next, `COc1ccc(-c2nnc(Nc3ccccc3)c3ccccc23)cc1`: 0.8%; `O=C1N=c2ccccc2=C1c1c(O)n(-c2ccccc2)[nH]c1=O`: -4.6%.
For the compound `Cc1ccc2nsnc2c1NC(=O)c1cc(Cl)ccc1Cl`, the displacement came out at 31%.
As to `O=C(O)CCN1C(=O)/C(=C/c2ccc(-c3ccc(Cl)cc3)o2)SC1=S`, the displacement is -78.5%.
Next, `O=C1NC(=O)N(c2ccc(Cl)cc2)C(=O)/C1=C/c1cccc(F)c1`: -7.8%.
For the compound `O=C1NN(c2ccccc2)C(=O)/C1=C/c1ccc(F)c(Br)c1`, the displacement is 4.7%.
Take `CCCCOc1ccc(C(=O)Nc2ccccc2OC(C)C)cc1`: the displacement amounted to 10.7%.
Next, `COc1ccc(/C=N/n2cn[nH]c2=S)cc1`: -6.3%; `O=C(NCCc1ccccc1)c1cc2n(n1)C(C(F)(F)F)CC(c1cccs1)N2` (centres undefined): 7%.
Next, `O=C1CC(c2ccccc2)=NN1c1nc2ccccc2s1`: -15.5%; `CCOC(=O)C(NC(=O)CC)C(O)c1cccc([N+](=O)[O-])c1` (centres undefined): -0.9%; `CCOc1ccc(N(CC(=O)Nc2ccc(OC)cc2OC)S(=O)(=O)c2ccc(SC)cc2)cc1`: 9.6%.
Take `CCN(CC)c1ccc(C(=O)N2CCN(c3ccccc3OC)CC2)cc1`: the displacement stood at 0.8%.
As for `O=C(Nc1ccc(-c2cn3ccccc3n2)cc1)c1ccccc1Cl`, the displacement came out at 12.2%.
Consider `Cc1ccnc(NS(=O)(=O)c2ccc(NC(=O)c3cc(-c4ccccc4)nc4ccccc34)cc2)n1`, for which the displacement came out at 12.6%.
For `c1ccc(OCCCN2CCCC2)cc1` the value was -4%; for `CCOC(=O)C1=C(C)N=c2s/c(=C\c3ccc4ccccc4n3)c(=O)n2C1c1ccccc1` (centres undefined), -11.7%; for `CCOc1ccc(N(CC(=O)Nc2ccc(C)c(C)c2)S(C)(=O)=O)cc1`, 43.3%.
For `COc1cc(NC(=O)c2cccc(OC)c2)cc(OC)c1`, the displacement was -2.1%.
Take `COc1ccc(C(=O)NCC2CCCO2)cc1I` (centres undefined): the displacement was -5.7%.
For the compound `O=C1C(=O)N(c2nc3ccccc3s2)C(c2ccccc2Cl)/C1=C(/O)c1ccccc1` (centres undefined), the displacement came to 5%.
As to `Brc1ccc(N2COc3ccc4ccccc4c3C2)cc1`, the displacement is -1.2%.
Next, `CSc1nncn1/N=C/c1ccc(Br)cc1`: -0.9%.
For `O=C(N/N=C\c1cc(Br)cc(I)c1O)c1ccc(Br)cc1` the value was 22.1%; for `CCN(CC)c1ccc(/C=C2/SC(=O)N(CNc3ccc(F)cc3)C2=O)cc1`, -1.1%.
As for `CCOCCOC(=O)c1ccc(NC(=O)COc2cc(C)ccc2C(C)C)cc1`, the displacement came to 19%.
On to `CN(C)c1ccc(/C=C(/c2ccccc2)c2nc3ccccc3[nH]2)cc1`, for which the displacement was -11.7%.
As for `COc1cc(CC(=O)O)c(C(C)=O)cc1OC`, the displacement is -1.7%.
As to `COC(=O)C1=C(C)NC2=C(C(=O)c3ccccc32)C1c1ccc(OCc2ccc([N+](=O)[O-])cc2)cc1` (centres undefined), the displacement was 14.5%.
As for `COc1ccc(/C=C2\SC(=S)N(c3cccc(C)c3C)C2=O)cc1OC`, the displacement stood at 10.6%.
Turning to `CCOC(=O)COc1ccc(/C=c2\sc3nc4ccccc4n3c2=O)cc1`, the displacement is -5.4%.
Regarding `CCOc1ccc2nc(SCC(=O)c3ccc(C)cc3C)sc2c1`, the displacement stood at 4.9%.
As for `COc1ccc(NC(=O)c2cc3ccccc3oc2=O)c(OC)c1`, the displacement is 7.1%.
As for `O=C(c1ccco1)N1CCN(Cc2cccc(F)c2)CC1`, the displacement was found to be 3.8%.
In the case of `CC(=O)c1cccc(NC(=O)CCCOc2ccccc2)c1`, the displacement is -3.2%.
Take `Cc1ccc(-c2[nH]n3c(=O)c4c(nc3c2C)CCCC4)cc1`: the displacement was -2.2%.
`Cc1cc(C)nc(NS(=O)(=O)c2ccc(N/C=C\C(=O)c3ccc(Cl)cc3)cc2)n1`: the displacement was determined as 28%.
Turning to `O=C(N/N=C/c1ccc(O)c(O)c1)c1ccc(-c2ccccc2)cc1`, the displacement is -9.7%.
In the case of `Cc1cc(NC(=O)c2cccc(N(C)C)c2)ccc1Br`, the displacement amounted to 14.9%.
Regarding `O=C(/C=C/c1ccco1)Nc1ccc(C(=O)Nc2cccc(-c3nc4ccccc4o3)c2)cc1`, the displacement was 12.3%.
Take `CCCC/C(CC)=N\NC(=O)c1cc([N+](=O)[O-])cc([N+](=O)[O-])c1`: the displacement stood at 7.3%.
For `CN(C)c1ccc(/C=C2\C(=O)NC(=O)N(c3ccc(Cl)cc3)C2=O)cc1Br`, the displacement was determined as 10.5%.
Take `C=C(C)c1cccc(C(C)(C)NC(=O)Nc2ccc(I)cc2)c1`: the displacement was -4.5%.
With `CC(O)CNC(=O)C1CC(=O)N(c2ccc(Br)cc2)C1` (centres undefined), the displacement is 10.9%.
Take `COC(=O)c1cc(O)cc(S(=O)(=O)c2ccc(C)cc2)c1O`: the displacement amounted to 5.8%.
Consider `O=C(Nc1ccc2c3c(cccc13)CC2)c1ccccc1I`, for which the displacement was -7.9%.
Next, `Cc1n[nH]c(C)c1Sc1ccccc1N=Cc1ccc(Cl)cc1Cl`: 6.2%; `Cc1cc(C(=O)Nc2cccc(C(=O)O)c2)c(C)o1`: -1.1%.
For `O=c1[nH]c(SCCc2ccccc2)nc2ccccc12` the value was -0.6%; for `C=CCNCC(=O)Nc1sc2c(c1C(=O)OCC)CCCC2`, 10.8%.
As to `COc1ccc(CSc2n[nH]c(-c3ccc(OC)cc3)n2)cc1`, the displacement was determined as 4.6%.
Regarding `Cc1cccc(Nc2ccc([N+](=O)[O-])c3nonc23)c1`, the displacement was determined as 1.8%.
As for `N#C/C(=C\c1ccc(-c2ccc(Cl)c(C(=O)O)c2)o1)C(=O)NCC1CCCO1` (centres undefined), the displacement was -20.9%.
For `COc1ccc(-n2c(C)ccc2-c2ccccc2)cc1`, the displacement was -12.8%.
In the case of `Cc1cccc(OCC(=O)NNC(=O)c2ccccc2C)c1`, the displacement was -8%.
As for `COC(=O)Cn1cnc2ccccc2c1=O`, the displacement was 0.1%.
Take `O=C(Nc1ccc2c(c1)OCCO2)c1ccc(Br)o1`: the displacement stood at 10%.
As to `CCOC(=O)c1c(NC(=O)C2C3CCC(O3)C2C(=O)O)sc2c1CCCC2` (centres undefined), the displacement was -11%.
`O=C1CC(N2CCN(c3ccc(F)cc3)CC2)C(=O)N1c1cc(Cl)cc(Cl)c1` (centres undefined): the displacement came to 8.7%.
In the case of `O=[N+]([O-])c1ccc(C2Nc3c(I)cccc3C3C=CCC32)cc1` (centres undefined), the displacement is -0.6%.
For the compound `Cc1ccc(S(=O)(=O)Nc2ccccc2C(=O)Nc2cccc3c2C(=O)c2ccccc2C3=O)cc1`, the displacement worked out at 14.7%.
For the compound `Cc1nc(NC(=O)C2C3CCC(O3)C2C(=O)O)sc1-c1ccccc1` (centres undefined), the displacement was -10.9%.
`Cc1cc(/C=N/NC(N)=S)c(C)n1-c1cccc(Cl)c1`: the displacement was -22.7%.
With `O=C(Nc1ccc(-c2nc3cc(Cl)cc(Cl)c3o2)cc1)c1cccc([N+](=O)[O-])c1`, the displacement is 62.7%.
Consider `COc1cccc(C2/C(=C(\O)c3ccccc3)C(=O)C(=O)N2CCCCCC(=O)O)c1` (centres undefined), for which the displacement was -10.4%.
For `O=C(NCc1ccc(Cl)cc1)C(=O)NC1CCCCC1` the value was 10.3%.
For `O=S1(=O)CCC(NS(=O)(=O)c2ccc(F)cc2)C1` (centres undefined) the value was -2.9%.
`Cc1cccc(NC(=O)CN(c2ccc(F)cc2)S(=O)(=O)c2ccccc2)c1`: the displacement was -1.3%.
Take `COc1ccc(O)c(-c2cc(-c3ccccc3C)[nH]n2)c1`: the displacement worked out at 4.1%.
As to `Cc1ccc(OCC(=O)O/N=C(\N)c2ccc(Cl)cc2)c(Br)c1`, the displacement is 5.9%.
